The source of these data is patent US20210238308A1 (Chugai, published 2021).

Assay in all cases: SPR, Protein L capture
Background: Surface plasmon resonance follows binding to a sensor surface in real time, without labels.

For assay [1], the target named is T1, PRYSPRY domain of human TRIM21 with N-terminal 6xHis tag (human).
T1 construct: Expressed in E. coli; also called hTRIM21; human TRIM21.PRYSPRY
T1 chain: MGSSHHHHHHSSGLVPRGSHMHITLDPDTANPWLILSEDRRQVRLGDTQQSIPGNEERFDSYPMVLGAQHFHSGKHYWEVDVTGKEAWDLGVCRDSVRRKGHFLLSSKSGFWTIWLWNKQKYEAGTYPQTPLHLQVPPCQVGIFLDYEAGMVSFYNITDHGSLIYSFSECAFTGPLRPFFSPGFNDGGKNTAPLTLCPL

Assay [2] has as its target T2, PRYSPRY domain of mouse TRIM21 with N-terminal 6xHis tag (mouse).
T2 construct: Expressed in E. coli; also called mTRIM21; mouse TRIM21.PRYSPRY
T2 chain: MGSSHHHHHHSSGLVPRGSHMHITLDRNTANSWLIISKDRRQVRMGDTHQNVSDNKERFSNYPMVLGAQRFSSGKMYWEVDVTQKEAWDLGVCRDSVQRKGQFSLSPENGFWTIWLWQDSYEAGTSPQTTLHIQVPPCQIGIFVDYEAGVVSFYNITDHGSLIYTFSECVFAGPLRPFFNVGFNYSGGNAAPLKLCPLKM

In a further assay the target is T3, human FcRn (human, UniProt P55899 partial chain; P61769 partial chain, limits assumed).
T3 construct: also called hFcRn

human FcRn, sequence (P55899 24-290 limits assumed, form in doubt, chain 1 of 2): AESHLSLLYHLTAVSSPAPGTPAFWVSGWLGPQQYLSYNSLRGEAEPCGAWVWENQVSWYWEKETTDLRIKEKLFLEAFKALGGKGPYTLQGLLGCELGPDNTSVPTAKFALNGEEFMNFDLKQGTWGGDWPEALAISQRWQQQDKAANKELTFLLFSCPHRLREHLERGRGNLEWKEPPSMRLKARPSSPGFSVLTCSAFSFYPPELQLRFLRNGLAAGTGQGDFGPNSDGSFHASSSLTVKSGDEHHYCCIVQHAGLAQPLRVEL
human FcRn, sequence (P61769 21-119 limits assumed, form in doubt, chain 2 of 2, further chain): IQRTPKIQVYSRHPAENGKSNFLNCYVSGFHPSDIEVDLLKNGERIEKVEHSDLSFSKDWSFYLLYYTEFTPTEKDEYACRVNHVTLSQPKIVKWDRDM

B1: MRAH-G1d/MRAL-KT0 L314V (antibody, human IgG1, kappa)
heavy: QVQLQESGPGLVRPSQTLSLTCTVSGYSITSDHAWSWVRQPPGRGLEWIGYISYSGITTYNPSLKSRVTMLRDTSKNQFSLRLSSVTAADTAVYYCARSLARTTAMDYWGQGSLVTVSS[human IgG1 constant region with L314V (EU numbers) omitted here]
light: DIQMTQSPSSLSASVGDRVTITCRASQDISSYLNWYQQKPGKAPKLLIYYTSRLHSGVPSRFSGSGSGTDFTFTISSLQPEDIATYYCQQGNTLPYTFGQGTKVEIKRTVAAPSVFIFPPSDEQLKSGTASVVCLLNNFYPREAKVQWKVDNALQSGNSQESVTEQDSKDSTYSLSSTLTLSKADYEKHKVYACEVTHQGLSSPVTKSFNRGEC
notes: copies: 2 + 2
B1: in assay [1], the “hTRIM21 binding level ratio (variant/control antibody)” value was determined as 1.03. Besides, the “mTRIM21 binding level ratio (variant/control antibody)” value in assay [2] was determined as 2.36. For the same molecule, the “hFcRn binding level ratio (variant/control antibody)” value with human FcRn came to 0.01.

B2: MRAH-G1d/MRAL-KT0 L309T (antibody, human IgG1, kappa)
heavy: QVQLQESGPGLVRPSQTLSLTCTVSGYSITSDHAWSWVRQPPGRGLEWIGYISYSGITTYNPSLKSRVTMLRDTSKNQFSLRLSSVTAADTAVYYCARSLARTTAMDYWGQGSLVTVSS[human IgG1 constant region with L309T (EU numbers) omitted here]
light: B1 light
notes: copies: 2 + 2
For the molecule B2, the “hTRIM21 binding level ratio (variant/control antibody)” value in assay [1] stood at 1.18. Moreover, the “mTRIM21 binding level ratio (variant/control antibody)” value in assay [2] is 2.83. In addition, in the assay with human FcRn, the “hFcRn binding level ratio (variant/control antibody)” value was determined as 0.73.

B3: MRAH-G1d/MRAL-KT0 L314N (antibody, human IgG1, kappa)
heavy: QVQLQESGPGLVRPSQTLSLTCTVSGYSITSDHAWSWVRQPPGRGLEWIGYISYSGITTYNPSLKSRVTMLRDTSKNQFSLRLSSVTAADTAVYYCARSLARTTAMDYWGQGSLVTVSS[human IgG1 constant region with L314N (EU numbers) omitted here]
light: B1 light
notes: copies: 2 + 2
On to B3, for which the binding result in assay [1] and in assay [2] was “no binding (tested: 100 nM)” throughout. In the assay with human FcRn, the “hFcRn binding level ratio (variant/control antibody)” value was found to be 0.

B4: MRAH-G1d/MRAL-KT0 L432D (antibody, human IgG1, kappa)
heavy: QVQLQESGPGLVRPSQTLSLTCTVSGYSITSDHAWSWVRQPPGRGLEWIGYISYSGITTYNPSLKSRVTMLRDTSKNQFSLRLSSVTAADTAVYYCARSLARTTAMDYWGQGSLVTVSS[human IgG1 constant region with L432D (EU numbers) omitted here]
light: B1 light
notes: copies: 2 + 2
Turning to B4, in assay [1], the “hTRIM21 binding level ratio (variant/control antibody)” value was 0.397. Also, in assay [2], the “mTRIM21 binding level ratio (variant/control antibody)” value was found to be 0.479. For the same molecule, the “hFcRn binding level ratio (variant/control antibody)” value with human FcRn was 0.3.

B5: MRAH-G1d/MRAL-KT0 L314G (antibody, human IgG1, kappa)
heavy: QVQLQESGPGLVRPSQTLSLTCTVSGYSITSDHAWSWVRQPPGRGLEWIGYISYSGITTYNPSLKSRVTMLRDTSKNQFSLRLSSVTAADTAVYYCARSLARTTAMDYWGQGSLVTVSS[human IgG1 constant region with L314G (EU numbers) omitted here]
light: B1 light
notes: copies: 2 + 2
Turning to B5, the binding result in assay [1] and in assay [2] was “no binding (tested: 100 nM)” in each case. Further, the “hFcRn binding level ratio (variant/control antibody)” value in the assay with human FcRn was determined as 0.38.

B6: MRAH-G1d/MRAL-KT0 L314S (antibody, human IgG1, kappa)
heavy: QVQLQESGPGLVRPSQTLSLTCTVSGYSITSDHAWSWVRQPPGRGLEWIGYISYSGITTYNPSLKSRVTMLRDTSKNQFSLRLSSVTAADTAVYYCARSLARTTAMDYWGQGSLVTVSS[human IgG1 constant region with L314S (EU numbers) omitted here]
light: B1 light
notes: copies: 2 + 2
As for B6, the “hTRIM21 binding level ratio (variant/control antibody)” value in assay [1] stood at 0.98. In addition, in assay [2], the “mTRIM21 binding level ratio (variant/control antibody)” value turned out to be 2.09. Besides, the “hFcRn binding level ratio (variant/control antibody)” value with human FcRn came to 0.44.

B7: MRAH-G1d/MRAL-KT0 L314A (antibody, human IgG1, kappa)
heavy: QVQLQESGPGLVRPSQTLSLTCTVSGYSITSDHAWSWVRQPPGRGLEWIGYISYSGITTYNPSLKSRVTMLRDTSKNQFSLRLSSVTAADTAVYYCARSLARTTAMDYWGQGSLVTVSS[human IgG1 constant region with L314A (EU numbers) omitted here]
light: B1 light
notes: copies: 2 + 2
Regarding B7, the “hTRIM21 binding level ratio (variant/control antibody)” value in assay [1] came out at 0.717. Moreover, the “mTRIM21 binding level ratio (variant/control antibody)” value in assay [2] was found to be 2.31. In addition, in the assay with human FcRn, the “hFcRn binding level ratio (variant/control antibody)” value is 0.01.

B8: MRAH-G1d/MRAL-KT0 L314D (antibody, human IgG1, kappa)
heavy: QVQLQESGPGLVRPSQTLSLTCTVSGYSITSDHAWSWVRQPPGRGLEWIGYISYSGITTYNPSLKSRVTMLRDTSKNQFSLRLSSVTAADTAVYYCARSLARTTAMDYWGQGSLVTVSS[human IgG1 constant region with L314D (EU numbers) omitted here]
light: B1 light
notes: copies: 2 + 2
For the molecule B8, in assay [1], the “hTRIM21 binding level ratio (variant/control antibody)” value stood at 0.724. Moreover, in assay [2], the “mTRIM21 binding level ratio (variant/control antibody)” value was determined as 0.727. In the assay with human FcRn, the “hFcRn binding level ratio (variant/control antibody)” value turned out to be 0.01.

B9: MRAH-G1d/MRAL-KT0 L432E (antibody, human IgG1, kappa)
heavy: QVQLQESGPGLVRPSQTLSLTCTVSGYSITSDHAWSWVRQPPGRGLEWIGYISYSGITTYNPSLKSRVTMLRDTSKNQFSLRLSSVTAADTAVYYCARSLARTTAMDYWGQGSLVTVSS[human IgG1 constant region with L432E (EU numbers) omitted here]
light: B1 light
notes: copies: 2 + 2
As for B9, the “hTRIM21 binding level ratio (variant/control antibody)” value in assay [1] is 0.996. Besides, the “mTRIM21 binding level ratio (variant/control antibody)” value in assay [2] was determined as 2.23. For the same molecule, the “hFcRn binding level ratio (variant/control antibody)” value with human FcRn is 0.91.

B10: MRAH-G1d/MRAL-KT0 L314Y (antibody, human IgG1, kappa)
heavy: QVQLQESGPGLVRPSQTLSLTCTVSGYSITSDHAWSWVRQPPGRGLEWIGYISYSGITTYNPSLKSRVTMLRDTSKNQFSLRLSSVTAADTAVYYCARSLARTTAMDYWGQGSLVTVSS[human IgG1 constant region with L314Y (EU numbers) omitted here]
light: B1 light
notes: copies: 2 + 2
With B10, the “hTRIM21 binding level ratio (variant/control antibody)” value in assay [1] was found to be 1.11. For the same molecule, the “mTRIM21 binding level ratio (variant/control antibody)” value in assay [2] was 3.13. Moreover, the “hFcRn binding level ratio (variant/control antibody)” value in the assay with human FcRn turned out to be 0.02.

B11: MRAH-G1d/MRAL-KT0 L314H (antibody, human IgG1, kappa)
heavy: QVQLQESGPGLVRPSQTLSLTCTVSGYSITSDHAWSWVRQPPGRGLEWIGYISYSGITTYNPSLKSRVTMLRDTSKNQFSLRLSSVTAADTAVYYCARSLARTTAMDYWGQGSLVTVSS[human IgG1 constant region with L314H (EU numbers) omitted here]
light: B1 light
notes: copies: 2 + 2
As to B11, the binding result in assay [1] and in assay [2] was “no binding (tested: 100 nM)” each time. For the same molecule, in the assay with human FcRn, the “hFcRn binding level ratio (variant/control antibody)” value came to 0.26.

B12: MRAH-G1d/MRAL-KT0 L314P (antibody, human IgG1, kappa)
heavy: QVQLQESGPGLVRPSQTLSLTCTVSGYSITSDHAWSWVRQPPGRGLEWIGYISYSGITTYNPSLKSRVTMLRDTSKNQFSLRLSSVTAADTAVYYCARSLARTTAMDYWGQGSLVTVSS[human IgG1 constant region with L314P (EU numbers) omitted here]
light: B1 light
notes: copies: 2 + 2
On to B12, for which the “hTRIM21 binding level ratio (variant/control antibody)” value in assay [1] amounted to 0.989. Besides, in assay [2], the “mTRIM21 binding level ratio (variant/control antibody)” value was found to be 2.05. The “hFcRn binding level ratio (variant/control antibody)” value in the assay with human FcRn is 0.02.
